Source: patent US12384801B2, “Benzothiophene, thienopyridine and thienopyrimidine derivatives for the modulation of sting” (CTXT PTY LTD, priority 2019, dated 2025)

What follows are compounds tested against human STING (R232H) (Homo sapiens, UniProt Q86WV6) (assay: Differential scanning fluorimetry (DSF), huSTING (R232H)). Conditions: compound 100 μM, 2 μM protein, Tm with ligand minus Tm of protein alone (1% DMSO).
Type: binding
Procedure: Data were analyzed using “Meltdown analysis” protocol described by Rosa (2015).

SMILES | DSF huSTING (R232H) ΔTm [°C]
NC(=O)c1ccc2c(c1)nc(-c1c(C(=O)O)sc3cccc(Cl)c13)n2CCCn1c(-c2c(C(=O)O)sc3cccc(Cl)c23)nc2cc(C(N)=O)ccc21 (single isomer, unassigned) [Example 4.2, 3,3′-(Propane-1,3-diylbis(5-carbamoyl-1H-benzo[d]imidazole-1,2-diyl))bis(4-chlorobenzo[b]thiophene-2-carboxylic acid)] | −0.91
NC(=O)c1ccc2c(c1)nc(-c1c(C(=O)O)sc3cccc(Cl)c13)n2CCn1c(-c2c(C(=O)O)sc3cccc(Cl)c23)nc2cc(C(N)=O)ccc21 (single isomer, unassigned) [Example 1.1, 3,3′-(Ethane-1,2-diylbis(5-carbamoyl-1H-benzo[d]imidazole-1,2-diyl))bis(4-chlorobenzo[b]thiophene-2-carboxylic acid)] | 12.1
NC(=O)c1ccc2c(c1)nc(-c1c(C(=O)O)sc3cccc(C(F)(F)F)c13)n2CCn1c(-c2c(C(=O)O)sc3cccc(C(F)(F)F)c23)nc2cc(C(N)=O)ccc21 (single isomer, unassigned) [Example 19.1, 3,3′-(Ethane-1,2-diylbis(5-carbamoyl-1H-benzo[d]imidazole-1,2-diyl))bis(4-(trifluoromethyl)benzo[b]thiophene-2-carboxylic acid)] | 8.21
